Measurements reported in US5212072A, “Polypeptides complementary to peptides or proteins having an amino acid sequence or nucleotide coding sequence at least partially known and methods of design therefor” (Board of Regents, The University of Texas System, priority 1991, dated 1993).
Not every detail of the peptide structures is certain; ends, links or a residue may be inferred. Where a SMILES comes first, the peptide text is derived from it. Where no end group is shown, it is not given here. [ ]: non-standard residue; d: D form.

How the values were obtained:
angiotensin II receptors = assay: Binding of [125I] angiotensin II to isolated hepatic receptor; parameters: species or system Rabbit; conditions: concentration inhibiting binding of radiolabelled angiotensin II by 50%; 0.25 nM [125I] angiotensin II; 60 minutes 20 C
Experimental: Inhibition of angiotensin II binding to angiotensin II receptors by complementary peptides was tested with measurement through the use of radioactive angiotensin II. Rabbit livers were homogenized, and were centrifuged in order to isolate particles sedimenting between 1,000 and 100,000 xg. Binding activity was solublized with 1% digitonin, followed by ammonium sulfate fractionation between 49 and 65% satuation followed by DEAE- cellulose chromatography at pH 7.5 using a linear gradient between 0.0 and 0.3 M KCl. The partially purified, solubilized receptor preparation bound 17 pmoles of angiotensin II per […] protein when analyzed by Scatchard analysis, indicating a purity of approximately 0.1%.
The standard assay for binding of angiotensin II to the receptor is as follows: The complete system (150 ul) contains 30 mM Tris-HCl, pH 7.5, 2.5 mM K2 EDTA, 0.2 mM PCMS, 0.25 nM [^125 I] angiotensin II ca. 100,000 cpm), 100 ug BSA, 0.25% (V/V) Brij 99 and 30 ug of partially purified receptor. The reaction is initiated by addition of the receptor and samples are incubated for 60 minutes at 20° C. The reaction is terminated with 1 ml of cold 0.5% charcoal/0.05% Dextran in 100 mM Tris-HCl, pH 7.5. Tubes are vortexed and then allowed to stand 10 minutes at 4° C., after which they are centrifuged and their supernatants, containing protein-bound angiotensin II, are counted.
The complete system under these conditions regularly yields about 10,000 cpm of bound radioactivity. […] A sample including 20 nM cold angiotensin II was also run. Residual binding of radioactivity in this control was 35-45%. Complementary peptides to angiotensin II were dissolved in water, except for CCA-A (1-13) which was dissolved in 3% DMSO, 0.04 M acetic acid and 0.05 M HCl. ID50 is the concentration of peptide that inhibits binding of radiolabelled angiotensin II by 50%.

[1] = target: T1, bovine ribonuclease A S-peptide (Bos taurus, UniProt P61823); assay: S-peptide affinity column binding; conditions: 0.10 M Tris-acetate pH 7.0 or 5.1; eluted with 0.10 M acetic acid
T1 construct: designated S-peptide, amino acid residues 1-20, and S-protein, amino acid residues 21-124
T1 sequence (P61823 27-46 limits assumed): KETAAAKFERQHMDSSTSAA

ACTH (1-24) = target: T2, ACTH (1-24) (Homo sapiens, UniProt P01189); assay: ELISA binding of ACTH (1-24) to HTCA-coated microtiter wells; conditions: 10 ug ACTH (1-24); coating 1 to 25 ug/well
T2 construct: 10 ug synthetic ACTH (1-24) in PBS-Tween buffer; purchased Organon (West Orange, N.J.); host or cells: chemical synthesis
Experimental: From 1 to 25 micrograms (ug) per well of HTCA or insulin in carbonate-bicarbonate coating buffer were added to 96 well round bottom microtiter plates and incubated at 4° C. for 8 hr. The plates were then washed with phosphate buffered saline PBS)-Tween 20 (Sigma Chemical Co., St. Louis, Mo.) buffer.
To the insulin-coated wells and to some of the HTCA-coated wells was added 10 ug synthetic ACTH (1-24) in PBS-Tween buffer. Control wells (HTCA alone) contained only PBS-Tween. The plates were incubated at room temperature for 2 hr. and then washed three times with PBS-Tween buffer. […] Following 3 washes with PBS-Tween buffer, alkaline phosphatase-conjugated goat anti-rabbit Ig G (Miles Laboratories, Elkharbt, Ind.) in PBS-Tween buffer (1:300 dilution was added. After inculation at room temperature for 1 hr, the plates were washed three times with PBS-Tween buffer and each well was treated with 200 microliters (ul) of p-nitrophenyl phosphate (1 mg/ml in carbonate-bicarbonate buffer) for 11/2 hr. at room temperature. The enzymatic reaction was then stopped by the addition of 3N NaOH (50 ul) to each well and the optical absorbance of p-nitrophenol the alkaline phosphatase product, was measured at 405 nm. The ACTH bound to the coated microtiter wells was measured by this enzyme-linked immunoabsorbent assay (EL1SA). […]

BALB/c mice = assay: Mouse vaccination with HTCA-KLH: antibody titer and serum corticosterone; type: in vivo; conditions: for Corticosterone (% of Control): mice
[2] = target: T3, adrenocorticotropic hormone (ACTH) (Mus musculus, UniProt P01193); assay: Blocking of corticosterone stress response in mice; type: in vivo, mice (BALB/c)
T3 construct: animals produce adrenocorticotropic hormone (ACTH), which acts on adrenal cells; from tissue; host or cells: whole animal, BALB/c mice (circulating endogenous hormone)
T3 sequence (P01193 124-162 limits assumed): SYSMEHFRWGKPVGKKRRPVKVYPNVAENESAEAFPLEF

rabbits = assay: Rabbit vaccination with HTCA-KLH: antibody titer and serum corticosterone; type: in vivo
[3] = tested on: LHRH-stimulated release of LH from pituitary cells; assay: Reverse hemolytic plaque assay, LHRH-stimulated LH release from pituitary cells; type: cell-based, rat; conditions: for plaque area, percentage response to control: Exp. 5 (No)
Experimental: A reverse hemolytic plaque assay (Smith, et al.), Method in Enzymology, 124, p.
Plaques were analyzed by determining plaque area with an image analysis (Bioguant or Image Technology Corp. Model 300) of ^125×-500 × microscopic enlargements.

KGVDVYAV [5CA-AII Rat, LYS GLY VAL ASP VAL TYR ALA VAL]
ID50 (angiotensin II receptors): 4,000 nM

LAHMDVGK [3CP-AII Rat (5 ASP), LEU ALA HIS MET ASP VAL GLY LYS]
ID50 (angiotensin II receptors): > 10,000 nM

VAYVDVGK [5CP-AII Rat, VAL ALA TYR VAL ASP VAL GLY LYS]
ID50 (angiotensin II receptors): > 10,000 nM

LFSRRSLKLPLVHVSRSGGR [S-peptide complementary peptide, LEU PHE SER ARG ARG SER LEU LYS LEU PRO LEU VAL HIS VAL SER ARG SER GLY GLY ARG]
binding to S-peptide affinity column (in words) [1]: specific binding

GVHLHRAPLLAHRLAPAEVFHGVR [HTCA]
binding of synthetic ACTH (1-24) to coated wells (ACTH (1-24)): bound | HTCA Titer (BALB/c mice; mice immunized with HTCA-KLH conjugate, Day 0, serum dilution giving 100 cpm above background): 3.6 | Corticosterone (% of Control) (BALB/c mice; Day 0, control = immunized with KLH alone): 100 % of Control | Corticosterone (% of Control) (BALB/c mice; Day 14): 92 % of Control | Corticosterone (% of Control) (BALB/c mice; Day 21): 78 % of Control | Corticosterone ([2]; 1 mg HTCA IM, delay 0.5 hr, stress 30 second ice water, mean of 3 mice): 90 µg/dL | maximum reduction in serum corticosterone ([2]; stress 2 hours after intramuscular injection of 1 mg): ~50% | HTCA Titer (rabbits; rabbits immunized with HTCA-KLH conjugate, Day 0, serum dilution giving absorbance 0.05): 1.4 | Corticosterone (% of Control) (rabbits; rabbits, Day 0, control = immunized with KLH alone): 86 % of Control | Corticosterone (% of Control) (rabbits; rabbits, Day 10): 66 % of Control | HTCA Titer (rabbits; rabbits, Day 10): 3.8 | HTCA Titer (rabbits; rabbits, Day 20): 470 | Corticosterone (% of Control) (rabbits; rabbits, Day 30): 320 % of Control | HTCA Titer (rabbits; rabbits, Day 30): 15000 | Corticosterone (% of Control) (rabbits; rabbits, Day 60): 35 % of Control | HTCA Titer (rabbits; rabbits, Day 60): 260000

CC[C@H](C)[C@H](NC(=O)[C@H](Cc1ccc(O)cc1)NC(=O)[C@@H](NC(=O)[C@H](CCCNC(=N)N)NC(=O)[C@@H](N)CC(=O)O)C(C)C)C(=O)N[C@@H](Cc1c[nH]cn1)C(=O)N1CCC[C@H]1C(=O)N[C@@H](Cc1ccccc1)C(=O)O [Angiotensin II, ASP ARG VAL TYR ILE HIS PRO PHE, reference compound]
ID50 (angiotensin II receptors): 15 nM

KGVYIHAL-NH2 [CCA-AII (Am), LYS--GLY--VAL--TYR--ILE--HIS--ALA--LEU--Am]
ID50 (angiotensin II receptors): 160 nM

CC[C@@H](C)[C@@H](NC(=O)[C@@H](Cc1ccc(O)cc1)NC(=O)[C@H](NC(=O)CNC(=O)[C@H](N)CCCCN)C(C)C)C(=O)N[C@H](Cc1c[nH]cn1)C(=O)N[C@H](C)C(=O)N[C@H](CC(C)C)C(=O)O [CCA-AII (all D), LYS-GLY-VAL-TYR-ILE-HIS-ALA-LEU] (H-[dK]G[dV][dY][dI][dH][dA][dL]-OH)
ID50 (angiotensin II receptors): > 10,000 nM

KGVDMHAL [3CA-AII Rat (4 ASP), LYS GLY VAL ASP MET HIS ALA LEU]
ID50 (angiotensin II receptors): 5,000 nM

VYHEVKGVYIHAL [CCA-A (1-13), VAL-TYR-HIS-GLU-VAL-LYS-GYL-VAL-TYR-ILE-HIS-ALA-LEU]
ID50 (angiotensin II receptors): 40 nM

KGVYIHALP [CCA-AII (Pro 9), LYS--GLY--VAL--TYR--ILE--HIS--ALA--LEU--PRO]
ID50 (angiotensin II receptors): 40 nM

SRAQSIGPVL [5CA-LHRH, LEU--VAL--PRO--GLY--ILE--SER--GLN--ALA--ARG--SER]
effect on LHRH in plaque assay (in words) [3]: clear inhibition of the effects of LHRH | plaque area, percentage response to control ([3]; LHRH + peptide 10^-4 M): 52% | plaque area, percentage response to control ([3]; LHRH + peptide 10^-6 M): 81%
